This list was built around the results that the source calls inconclusive (neither active nor inactive); the mix of calls is not that of the screen. Potencies of inconclusive entries are doubtful fits and often do not repeat. Active and inactive are the calls of the source. Calls follow the shape of the dose curve; as a rule, active = well fitted inhibition curve with a large enough effect; inconclusive = small, poorly fitted or top-dose-only effect; inactive = no such curve, though single readings can be large or run the other way.
test: Confirmatory qHTS for Identification of Small Molecule Inhibitors of Huntingtin Promoter Activity; settings: HEK293 HTT promoter firefly luciferase reporter, 24 h; series mostly up to 57.5 µM; also: nearly all actives have a fitted effect of over 65% in size
Method in brief: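 2,500 luciferase reporter HEK293 cells/well; 24 h culture; cpds up to 57.5 uM final, PTC124 50 uM ctrl; 24 h, 37C; Dual-Glo FLuc reagent, 10 min RT; lum. Norm.: vehicle 0%, zero RLU -100%.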
Potency is read from the fitted curve at half-maximal effect; tags tell the direction and shape of the fitted curve.

| SMILES | Potency |
| --- | --- |
| CC=C1NC(=O)[C@H]2CSSCCC=C[C@H](CC(=O)N[C@H](C(C)C)C(=O)N2)OC(=O)[C@H](C(C)C)NC1=O | inactive |
| Cc1nc(Nc2n[nH]c3c2CN(C(=O)N[C@H](CN(C)C)c2ccccc2)C3(C)C)c2sccc2n1 | inactive |
| CCN(C(=O)c1cc2c(s1)-c1ccccc1OC2)c1cccc(C(F)(F)F)c1 | inconclusive: 16.9 µM [inhibitor, partial curve, poor fit] |
| O=C(CCc1cn(Cc2ccc(F)cc2)c2ccccc12)NC1CCCCC1 | inconclusive: 21.3 µM [inhibitor, partial curve] |
| CCCCN1C(C(=O)c2ccccc2)=C(OC(C)=O)c2ccccc2S1(=O)=O | inconclusive: 10.7 µM [inhibitor, partial curve] |
| COc1ccccc1N1CCN(C(CNC(=O)C(=O)NCc2cccnc2)c2cccnc2)CC1 (centres undefined) | inconclusive: 21.3 µM [inhibitor, partial curve, poor fit] |
| Cc1ccc(CN2CCCn3nc(C(=O)NCc4ccc(OC(C)C)cc4)cc3C2=O)cc1 | inconclusive: 8.49 µM [inhibitor, partial curve] |
| CCc1c(C)nc2nncn2c1Nc1ccc(C(C)C)cc1 | inconclusive: 19 µM [inhibitor, partial curve] |
| Cc1c(C(=O)Nc2ccc(F)cc2)oc2ccc(S(=O)(=O)N3CCCCCC3)cc12 | inconclusive: 19 µM [inhibitor, partial curve] |
| COc1cc(CN(C(=O)COc2ccc(C)cc2)c2ccccn2)cc(OC)c1OC | inconclusive: 23.9 µM [inhibitor, single point] |
| COc1ccc(-c2nc(CSCC(=O)NCCc3ccc(OC)c(OC)c3)c(C)o2)cc1 | inconclusive: 30.1 µM [inhibitor, single point] |
| CC(=O)N1CCCc2cc(S(=O)(=O)N3CCN(c4ccccc4F)CC3)ccc21 | inconclusive: 13.5 µM [inhibitor, partial curve] |
| Cc1cccc(NC(=O)Cn2c(=O)oc3cc(S(=O)(=O)N4CCCCCC4)ccc32)c1 | inconclusive: 15.1 µM [inhibitor, partial curve] |
| CCc1ccccc1-n1c(SCC(=O)Nc2ccc(C)cc2)nc2n[nH]c(C)c2c1=N | active: 13.5 µM |

Source: PubChem BioAssay AID1508621 (National Center for Advancing Translational Sciences (NCATS), 2021)
